Assay results published in patent US11440970B2, “Nicotine-binding antibodies” (priority 2017, dated 2022).

What was measured:
[1] = Nicotine binding affinity by Surface Plasmon Resonance Biosensor; conditions: S-Nicotine; 25° C.; Surface Plasmon Resonance Biosensor; read-out: KD (nM) (S-Nicotine; 25° C.)
Procedure: The KD values reported below were determined by Surface Plasmon Resonance Biosensor. Other methodology for determining binding affinity also can be used, such as equilibrium dialysis.

[2] = rats; i.v.; non-compartmental analysis
Procedure: (§1) The pharmacokinetics of 8D1-IgG4 were tested in rats following a single dose (20 mg/kg; FIG. 6) and repeated doses (40 mg/kg; FIG. 7) of 8D1-IgG4 dosed weekly for 4 weeks in rats (N=6). Residual mAb concentrations were measured at various time points after i.v. dosing. […] Rodent PK assays of mAb's are not always predictive of PK in humans but are often used as a measure of “in vivo fitness” in the lead selection process.

[3] = Unbound nicotine by ultrafiltration at end of pharmacokinetic study; format: in vivo, rats; conditions: end of PK study, 0.03 mg/kg i.v. nicotine, 3 minutes
Procedure: as §1

[4] = In vivo study of acute heavy smoking, 5 repeated nicotine doses; parameters: species or system rats; conditions: for brain nicotine levels reduced by, compared to control IgG: after the fifth nicotine dose; for total serum nicotine level / brain nicotine level: following the 5th nicotine dose; for total serum nicotine level: control 60 ng/mL; for brain nicotine level: control 298 ng/g
[5] = Single dose nicotine dose-response study in antibody pre-treated rats; format: in vivo; conditions: for serum nicotine level / brain nicotine level: 3 min; for serum nicotine level: control 21 ng/mL; for brain nicotine level: control 139 ng/g
Procedure: Rats were used since their nicotine metabolism is generally similar to humans in rate and range of metabolites. Rats were pre-treated with 10, 20, or 40 mg/kg of 12F5 IgG4 or 8D1 IgG4. […] Three minutes later, the animals were sacrificed and the amount of nicotine in their serum and brains was quantified.
Serum levels of antibody were measured using ELISA and rats that had less than 5 μg/mL serum antibody level (due to incomplete administration) were excluded from the analyses.

[6] = Single dose nicotine pharmacokinetic study in antibody pre-treated rats; format: in vivo; conditions: rats pre-treated with 20 mg/kg antibody; 0.03 mg/kg nicotine i.v.; 3 minutes later; vs control rats
[7] = Nicotine self-administration (NSA) in rats; format: in vivo
Procedure: After NSA stabilized at this unit dose, rats received twice-weekly i.v. infusions of 160 mg/kg 8D1-IgG4 (N=7) or 160 mg/kg Gammagard (control mAb, N=7) 30 minutes prior to the session while rats continued NSA at the 0.015 mg/kg dose for 10 consecutive sessions. […] Although the dose of 8D1-IgG4 was high, the effective dose for smoking cessation in humans will likely be much lower because people will be motivated to quit. […] Rollema, H. et al., Neuropharmacology, 52: 985-994 (2007).

[8] = Non-GLP 4-week repeated high-dose toxicology study; format: in vivo, rats
Procedure: 8D1-IgG4 was dosed i.v. once weekly at 200 mg/kg.
Assessment of toxicity was based on mortality, clinical observations, and body weight during the course of the 28-day study, and at the end of study organ weights, gross anatomic pathology, hematology, serum clinical chemistry, and coagulation was performed. Histopathology of selected tissues (heart, liver, lung, kidney, spleen, skeletal muscle, brain, colon, stomach, ovary, and testis) is pending. Tissues were fixed immediately in formalin, and processed for embedding in paraffin, staining with H&E, and review by a veterinary pathologist.

[9] = Accelerated stability study, Size Exclusion Chromatography; format: physicochemical; conditions: for Main Peak Area: PBS, approximately 10 mg/ml
Procedure: To determine the relative stability of exemplary nicotine-binding antibodies, antibodies 8D1-IgG4 and 12F5 IgG4 were formulated in phosphate buffer saline (PBS) at a concentration of approximately 10 mg/ml and incubated at 40° C. or 5° C.

[10] = Binding affinity for R-(+)-nicotine
[11] = 10 mg/kg antibody, 0.03 mg/kg nicotine i.v.
[12] = 20 mg/kg antibody, 0.03 mg/kg nicotine i.v.
[13] = 40 mg/kg antibody, 0.03 mg/kg nicotine i.v.
[14] = 200 mg/kg i.v. once weekly, 4 weeks, rats

B1: 8D1-IgG4: IgG4 (S228P) nicotine-binding antibody, heavy chain SEQ ID NO: 27, light chain SEQ ID NO: 28 (antibody)
heavy: QVRLQESGPGLVKPSGTLSLTCAVSGGSIYSSNWWTWVRQPPGKGLEWVGEIHIRGTTYYNPSLNSRVTISLDKSNNQVSLRLTSVTAADSAVYYCVSQEVGGPDLWGQGTLVTVSSASTKGPSVFPLAPCSRSTSESTAALGCLVKDYFPEPVTVSWNSGALTSGVHTFPAVLQSSGLYSLSSVVTVPSSSLGTKTYTCNVDHKPSNTKVDKRV[here human IgG4 Fc with S228P (EU numbers) without letters]
light: NFMLTQPHSVSESPGKTVTISCTRSGGSIATYYVQWYQQRPGSAPTNVIYKYDQRPSGVPDRFSGSIDSSSNSASLTISGLKTEDEADYYCQSYDNNIQVFGGGTKLTVLGQPKAAPSVTLFPPSSEELQANKATLVCLISDFYPGAVTVAWKADGSPVKAGVETTKPSKQSNNKYAASSYLSLTPEQWKSHRSYSCQVTHEGSTVEKTVAPTECS
Kd [1]: 5 nM | clearance [2]: 6 mL/h/kg | elimination phase half-life [2]: 131 h | steady-state VD [2]: 0.0792 L/kg | unbound nicotine [3]: < 2% | brain nicotine level, % of the control level ([4]; 40 mg/kg antibody): 49% | total serum nicotine level, fold of the control level ([4]; 40 mg/kg antibody): 19 fold | brain nicotine levels reduced by, compared to control IgG ([4]; 40 mg/kg antibody): 51% | total serum nicotine level ([4]; 40 mg/kg antibody): 1130 ng/mL | brain nicotine level ([4]; 40 mg/kg antibody): 146 ng/g | brain nicotine level, % of the control level ([4]; 80 mg/kg antibody): 8% | total serum nicotine level, fold of the control level ([4]; 80 mg/kg antibody): 33 fold | brain nicotine levels reduced by, compared to control IgG ([4]; 80 mg/kg antibody): more than 90% | total serum nicotine level ([4]; 80 mg/kg antibody): 1987 ng/mL | brain nicotine level ([4]; 80 mg/kg antibody): 23 ng/g | free nicotine ([4]; of total serum nicotine, 40 and 80 mg/kg antibody, refers to Example 8): < 2% | brain nicotine levels after 5 nicotine doses (FIG. 4B) ([4]; rats pretreated with antibody): decrease | serum nicotine levels after 5 nicotine doses (FIG. 4A) ([4]; rats pretreated with antibody): increase | brain nicotine level, % of the control level ([5]; 10 mg/kg antibody): 49% | serum nicotine level, fold of the control level ([5]; 10 mg/kg antibody): 11 fold | serum nicotine level [5, 11]: 226 ng/mL | brain nicotine level [5, 11]: 68 ng/g | brain nicotine level, % of the control level ([5]; 20 mg/kg antibody): 16% | serum nicotine level, fold of the control level ([5]; 20 mg/kg antibody): 17 fold | serum nicotine level [5, 12]: 351 ng/mL | brain nicotine level [5, 12]: 22 ng/g | brain nicotine level, % of the control level ([5]; 40 mg/kg antibody): 3% | serum nicotine level, fold of the control level ([5]; 40 mg/kg antibody): 22 fold | serum nicotine level [5, 13]: 470 ng/mL | brain nicotine level [5, 13]: 4 ng/g | decrease of the amount of nicotine localized in the brain ([5]; 40 mg/kg antibody, 0.03 mg/kg nicotine i.v., rats): more than 95% | decrease in the level of nicotine localized in the brain [6]: 80% | nicotine self-administration (NSA) compared to baseline and to control rats ([7]; 160 mg/kg i.v. twice-weekly, unit nicotine doses 0.015 and 0.0075 mg/kg): significant decrease | mean number of self-administered infusions at Baseline relative to during antibody treatment (FIG. 5) ([7]; each unit nicotine dose): significantly higher | tolerability ([8]; 200 mg/kg i.v. once weekly, 4 weeks, with and without nicotine, rats): well-tolerated with no obvious pathology | daily clinical observations [8, 14]: no observable behavioral changes or modifications in feeding or grooming | mortality [8, 14]: no mortality | serum clinical chemistry and plasma coagulation ([8]; 23 analytes, between treatment groups): did not find any notable changes | gross pathology at necropsy ([8]; end of study): No gross pathological findings | hematological parameters (complete blood count) ([8]; end of study): no significant changes or trends | organ weights ([8]; liver, lung, spleen, heart, kidneys, testis or ovaries): no statistically significant changes | body weight ([8]; monitored twice weekly, between treatment groups): no significant differences | % Aggregates ([9]; 2 week, 5° C.): 0.98% | % Fragments ([9]; 2 week, 5° C.): 0% | Main Peak Area ([9]; 2 week, 5° C.): 500,715 | % Aggregates ([9]; 2 week, 40° C.): 2.9% | % Fragments ([9]; 2 week, 40° C.): 0% | Main Peak Area ([9]; 2 week, 40° C.): 523,434 | % Aggregates ([9]; 4 week, 5° C.): 0% | % Fragments ([9]; 4 week, 5° C.): 0% | Main Peak Area ([9]; 4 week, 5° C.): 476,309 | % Aggregates ([9]; 4 week, 40° C.): 4.0% | % Fragments ([9]; 4 week, 40° C.): 0% | Main Peak Area ([9]; 4 week, 40° C.): 586,613 | Kd ([10]; R-(+)-nicotine): 92 nM | enantiomer binding preference ([10]; S-(−)-nicotine versus R-(+)-nicotine): preferentially bind to S-(−)-nicotine
